From PubChem BioAssay AID1240 (Sanford-Burnham Center for Chemical Genomics, 2008)
Among all 50,000 compounds or so, about 800 (1.6%) showed an effect of 50% or more. Some of the results follow.

Each compound was assayed against Bcl-2-like protein 10 (Homo sapiens) (UniProt Q9HD36) (assay: TR3 peptide-Bcl-B binding displacers, biochemical primary FP assay, phenotype converters (AID 1240;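 further: 0% = Bcl-B with tracer peptide and DMSO and 100% = tracer peptide lacking Bcl-B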)). Conditions: GST-Bcl-B / FITC-TR3 peptide fluorescence polarization; stronger effect = higher value; compound at 3.75 mg/L.
Sequence of UniProt Q9HD36 (Q9HD36 whole entry, looked up): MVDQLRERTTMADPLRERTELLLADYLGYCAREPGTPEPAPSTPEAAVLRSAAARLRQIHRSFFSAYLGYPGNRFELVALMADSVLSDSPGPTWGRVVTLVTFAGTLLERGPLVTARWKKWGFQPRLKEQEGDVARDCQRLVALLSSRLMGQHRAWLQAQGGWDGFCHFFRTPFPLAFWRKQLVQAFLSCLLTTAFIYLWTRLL
For `COc1ccc(/C=C/C(=O)Nc2ccc(OC(F)(F)F)cc2)cc1`, the displacement was 2.6%. With `CC(=O)c1cccc(NC(=O)CC2S\C(=N/N=C/C=C/c3ccccc3)NC2=O)c1` (configuration not stated) the displacement was 0.3%. Work on `CCN(CC)c1ccc(/C=C2\C(=O)NC(=O)N(c3ccccc3OC)C2=O)cc1` yielded a displacement of 0.3%. In the case of `O=C(Nc1cc(Cl)cc(Cl)c1)c1ccc2c(c1)OCCO2`, the displacement was 12.3%. Work on `Cc1ccc(OCCCn2ccnc2)cc1` yielded a displacement of -4.6%. `CCCC(=O)NC(c1ccc(Cl)cc1)c1ccc2cccnc2c1O` (configuration not stated) was tested, and the displacement was 9%. Compound `COc1cc(OC)c(OC)cc1/C=N/N=C(\N)c1nonc1N` has a displacement of 2.3%. With `CS(=O)(=O)N(CC(=O)Nc1ccc(Cl)c(Cl)c1)c1ccc(Cl)cc1` the displacement was -0.1%. With `CC1=C(C)CC2C(=O)N(c3ccc(-c4ccc([N+](=O)[O-])cc4)cc3)C(=O)C2C1` (configuration not stated) the displacement was 20.7%. Work on `NC1=NC(=O)/C(=C/c2ccccc2OCc2cccc3ccccc23)S1` yielded a displacement of 14.8%. For `Cc1ccc2c(c1)c1c3n2CCN(CC(O)CNCN2CCCCCC2)C3CCC1` (configuration not stated), the displacement was -4.4%. Work on `O=C(NCCN1CCN(Cc2ccccc2Cl)CC1)C(=O)Nc1ccc(F)cc1` yielded a displacement of 2.2%. `Cc1ccc(OCCOCCOc2ccc(Cl)cc2/C=N\n2cnnc2)cc1` showed a displacement of -24.8%. `COc1cc(OC)cc(C(=O)N2CCN(C3CCCCCC3)CC2)c1` gave a displacement of -9%. With `COc1cc(/C=C2\C(=O)N(c3ccc(S(N)(=O)=O)cc3)N=C2C)cc(Cl)c1O` the displacement was 9%. In the case of `CCOC(=O)c1ccc(NC(=O)Cc2ccccc2OC)cc1`, the displacement was -12.8%. Compound `O=C(Nc1ccc(S(=O)(=O)NC(=O)C2CCCCC2)cc1)c1ccccc1Cl` has a displacement of -3.7%. In the case of `COc1ccccc1N(S(=O)(=O)c1ccccc1)S(=O)(=O)c1ccccc1`, the displacement was -3.3%. Compound `Cc1ccc(Cl)c(OCCN2CCOCC2)c1` has a displacement of -2.6%. `Cc1ccc(NC(=O)c2ccc(Br)o2)cc1Cl` showed a displacement of 22.6%. `O=S(=O)(NCCOCc1ccccc1)c1ccccc1` showed a displacement of -2.3%. `CCc1ccc(-c2nc(-c3ccccn3)no2)cc1` was tested, and the displacement was -3.8%. `Clc1ccccc1CSc1nc2ncccc2[nH]1` was tested, and the displacement was 5.1%. For `O=C(N1CCSCC1)C(F)(F)C(F)(F)C(F)(F)C(F)(F)F`, the displacement was 1%. Work on `C/C(=N\N)C1(O)CCC2C3CCC4=C/C(=N\N)CCC4(C)C3CCC21C` (configuration not stated) yielded a displacement of -9.4%. Work on `Cc1cc2c(cc1C)NC(CC(=O)Nc1ccc(Br)cc1)C(=O)N2` (configuration not stated) yielded a displacement of -21.4%. `Cc1cc(C(C)(C)C)cc(C(C)(C)C)c1NC(=O)Cc1ccccc1` gave a displacement of 9.8%. Compound `Nc1ccc2oc(-c3cccc(Br)c3)nc2c1` has a displacement of -6.3%. `Cc1ccc(C2=NN(C(=N)SC3CC(=O)N(c4ccc(C(=O)O)cc4)C3=O)C(c3ccc(Br)cc3)C2)cc1` (configuration not stated) gave a displacement of 3%. Compound `COc1ccccc1C(=O)Nc1ccc(C(=O)OC2CCCCC2)cc1` has a displacement of -3.8%. `CCC(=O)N1N=C(C)CC1(O)c1ccccc1` (configuration not stated) gave a displacement of -1.9%. `O=C(/C=C\Nc1ccccc1NS(=O)(=O)c1ccccc1)c1ccc(F)cc1` gave a displacement of 10.4%. In the case of `O=C(O)c1cc2cc(OCc3ccccc3)c(OCc3ccccc3)cc2o1`, the displacement was 11.4%. `COc1cccc2cc(C(N)=O)c(=O)oc12` gave a displacement of -0.3%. For `CCSc1nc(O)c(Cc2ccccc2)c(=O)n1-c1ccc(C)cc1`, the displacement was 6.8%. `Cc1cc(Cl)ccc1OCC(=O)Nc1ccc(Br)cn1` was tested, and the displacement was 3%. Compound `Cc1ccc(NC(=O)c2c(NC(=O)c3ccc(C)cc3)sc3c2CCC3)cc1` has a displacement of -8.7%. `COc1ccc(/C=C/C(=O)NC(=S)Nc2ccc(C(C)=O)cc2)cc1OC` gave a displacement of 10.6%. Compound `O=C(NC(=S)Nc1ccc(-c2nc3ccccc3s2)cc1)c1ccc(Cl)cc1` has a displacement of 1.7%. `CN(C)CCC#CC1(O)c2ccccc2-c2ccccc21` showed a displacement of 9.9%. With `O=C(Nc1ccc(Cl)cc1C(F)(F)F)c1ccc(I)cc1` the displacement was 0%. In the case of `COc1ccc(-c2n[nH]c(=S)n2N)cc1OC`, the displacement was -27.2%. With `CCC1=NN(C(=O)c2cccc(OC)c2)C(O)(c2ccc(Br)cc2)C1` (configuration not stated) the displacement was -9.3%. `S=c1[nH]nc(-c2ccccc2)n1/N=C/c1ccc2c(c1)OCO2` showed a displacement of 0.6%. For `CCOc1ccccc1NC(=O)c1ccc(CN2CCOCC2)cc1`, the displacement was 4.5%. `CCOC(=O)CNS(=O)(=O)c1c(C)cc(C)cc1C` gave a displacement of -14%. For `O=C(C(c1ccccc1)c1ccccc1)N1CCN(c2ccc([N+](=O)[O-])cc2)CC1`, the displacement was 0.3%. Compound `CC1=CC(=O)N(c2ccc([N+](=O)[O-])cc2)C1=O` has a displacement of -2.5%. `O=C(O/N=C(/c1ccncc1)c1ccc([N+](=O)[O-])cc1)c1ccc(Cl)cc1Cl` was tested, and the displacement was 1.9%. With `O=C(CSc1ccccn1)Nc1ccc2c(c1)C(=O)c1ccccc1C2=O` the displacement was 54.6%. Work on `COc1ccc(NC(=O)C(=O)N/N=C/c2ccc(O)c(OC)c2)cc1` yielded a displacement of 0.8%. Compound `O=C1NC(=S)NC(=O)C1=Cc1ccc(-c2ccccc2C(=O)O)o1` has a displacement of 16.1%. In the case of `C=CCC1(O)C(C)C(c2ccccc2)NC(c2ccccc2)C1CCC` (configuration not stated), the displacement was 10.3%. In the case of `O=C(NCc1ccccc1)C1CC(=O)N(c2ccc(Cl)cc2)C1` (configuration not stated), the displacement was 10.4%. With `O=C(Nc1ccc(N2CCOCC2)cc1)c1sc2ccccc2c1Cl` the displacement was -5.6%. `CCOC(=O)c1ccccc1NC(=O)CN(c1ccccc1)S(=O)(=O)c1ccccc1[N+](=O)[O-]` showed a displacement of -8.3%. `CC(C)Oc1ccc(/C=C(/NC(=O)c2ccccc2)C(=O)NCCCO)cc1` gave a displacement of 4.3%. `Cc1nc2ccccc2n1/N=C/c1ccccc1` gave a displacement of -2.2%. In the case of `COC(=O)c1c(NC(=O)c2ccc(Cl)cc2Cl)sc(Cc2ccccc2)c1C`, the displacement was 9.2%. `Cc1ccc(-c2nc3ccccc3o2)cc1NC(=O)C(Cl)(Cl)Cl` showed a displacement of 5.3%. `CC(C)NC(=O)c1cccc([N+](=O)[O-])c1` was tested, and the displacement was -3.6%. For `CCc1ccc(S(=O)(=O)N=Nc2c(O)[nH]c3ccccc23)cc1`, the displacement was 6.1%. Work on `CC(=O)N1c2ccccc2NC2=C(C(=O)CC(c3ccccc3)C2)C1c1cccnc1` (configuration not stated) yielded a displacement of -18.2%. `CCC1(C)CC(CCNCc2ccc(N(C)C)cc2)(c2ccccc2OC)CCO1` (configuration not stated) was tested, and the displacement was 2.2%. `CC(=O)C12c3ccccc3C(c3ccccc31)C1C(=O)NC(=O)C12` (configuration not stated) showed a displacement of 13.7%. With `CCOc1ccc(CN2CCN(C(=O)c3ccc(-c4ccccc4)cc3)CC2)cc1` the displacement was 8.5%. Work on `CC(=O)N/N=C/c1cc(C)n(-c2ccc(Cl)c(Cl)c2)c1C` yielded a displacement of -6.4%. Compound `Cc1cc(C)nc(/N=C(/N)Nc2ccc(-c3ccccc3)cc2)n1` has a displacement of -16.3%. Compound `CCOc1ccc(/C=C2/C(=O)N(c3ccccc3)N=C2C)c(OCC)c1` has a displacement of 0.4%. With `CN1CCN(c2nc3ccccn3c(=O)c2/C=C2\SC(=S)N(CCc3ccccc3)C2=O)CC1` the displacement was 14.9%. `COc1cc(/C=C2\C(=O)NC(=O)N(c3ccc(C)cc3)C2=O)ccc1OCc1ccc([N+](=O)[O-])cc1` showed a displacement of 70%. `O=C(c1ccc([N+](=O)[O-])cc1)N1CCN(C2CCN(Cc3ccccc3)CC2)CC1` showed a displacement of -8.3%. `CCOC(=O)CSC1=C(C#N)C(c2ccc(Br)cc2)CC(=O)N1` (configuration not stated) gave a displacement of -9.6%. In the case of `CCN(CC)c1ccc(C2C(C(=O)OC(C)C)C(=O)CC(C)(O)C2C(=O)OC(C)C)cc1` (configuration not stated), the displacement was -7.5%. With `O=C(ON1C(=O)c2ccccc2C1=O)c1ccccc1[N+](=O)[O-]` the displacement was 15%. Compound `O=C(Nc1ccc(NC(=O)c2ccc(Cl)c(S(=O)(=O)N3CCOCC3)c2)cc1)c1ccccc1` has a displacement of -5.2%. `CCOC(=O)c1c(C)nc(-c2ccccc2)nc1NC(=O)C(C)C` was tested, and the displacement was -19.4%. With `CN(C)c1ccc(C(=O)NCc2ccc(S(N)(=O)=O)cc2)cc1` the displacement was 21.7%. Compound `COc1ccc(C2/C(=C(\O)c3ccccc3)C(=O)C(=O)N2CCN(C)C)c(OC)c1` (configuration not stated) has a displacement of 1.7%. `COc1ccc(CCNC(=O)CSc2nnc(-c3ccco3)n2-c2ccccc2)cc1OC` showed a displacement of -10.4%. Compound `CCOc1ccc(N(CC(=O)NCCSCc2ccc(Cl)cc2)S(C)(=O)=O)cc1` has a displacement of -1.8%. With `O=C(NCc1ccco1)c1ccc(S(=O)(=O)N2CCOCC2)cc1` the displacement was 11.3%. `Cc1ccccc1NC(=O)CCC(=O)N/N=C/c1ccncc1` showed a displacement of -7.9%. For `COc1ccc2ccccc2c1/C=C1\SC(=S)N(c2ccccc2)C1=O`, the displacement was 9%. With `CCN(CC)c1ccc(NC(=O)C(C)Oc2ccc(Cl)cc2Cl)cc1` (configuration not stated) the displacement was 8.6%. `Cc1[nH][nH]c(=O)c1C(c1ccccc1Cl)C(C#N)C#N` (configuration not stated) gave a displacement of -6%. Compound `CCc1nnc(NC(=O)CN2C(=O)/C(=C/c3cc(OC)c(OC)c(OC)c3)SC2=S)s1` has a displacement of -0.3%. `O=C(CCCCCN1C(=O)c2ccccc2C1=O)Nc1ccc(F)c(Cl)c1` gave a displacement of 4.5%. Work on `CCNC(=O)c1ccc(Cl)cc1Cl` yielded a displacement of 2%. For `CC1=CC(C)(C)N(C)C(=S)N1c1ccccc1`, the displacement was 13.5%. With `CC(=O)Oc1ccc(-c2cccc(C(=O)Nc3cccc([N+](=O)[O-])c3)c2)cc1` the displacement was 4.5%. In the case of `Cc1cc(C)c(NC(=O)CN2C(=O)c3ccccc3C2=O)c(C)c1`, the displacement was 13.1%. In the case of `O=c1nc(N(c2ccccc2)c2ccccc2)[nH]c(=O)[nH]1`, the displacement was 0.8%. `COC(=O)c1c(NC(=O)c2cc([N+](=O)[O-])cc([N+](=O)[O-])c2)c(C#N)c(C)n1-c1ccccc1` gave a displacement of -3.4%. Work on `COc1ccc(N(CC(=O)NCCc2ccccc2)S(=O)(=O)c2ccc(C)cc2)cc1OC` yielded a displacement of 3.6%. With `CCCCOC(=O)c1ccc(NC(=O)c2ccccc2OC)cc1` the displacement was 0.3%. Compound `O=[N+]([O-])c1cc(C(F)(F)F)ccc1N/N=C/c1ccc2c(c1)OCO2` has a displacement of 12.2%. For `COc1ccc(OCC(=O)Nc2ccc(I)cc2Cl)cc1`, the displacement was 8.4%. `Cc1cccc(C2=N/C(=C\c3ccc(OS(=O)(=O)c4ccccc4)cc3)C(=O)O2)c1` gave a displacement of -8.8%. In the case of `O=C(CSc1ccccc1C(=O)O)Nc1ccccc1`, the displacement was 8%. `CCOC(=O)c1c(C)oc2ccc(OCC(=O)c3ccc(Br)cc3)cc12` showed a displacement of 15.7%. `COc1cc(C(=O)Nc2c(C)cc(Br)cc2C)cc(OC)c1OC` gave a displacement of 9.6%. For `Cc1ccc(NCC(=O)N/N=C\c2cc(Cl)ccc2O)cc1`, the displacement was -10.2%. With `O=C1c2ccccc2C(=O)N1CCCCN(C(=O)c1ccccc1)c1ccc(F)cc1F` the displacement was -11.5%. With `CC1=C(C(=O)Nc2ccc(Cl)cc2)C(c2cccc3ccccc23)NC(=S)N1` (configuration not stated) the displacement was 0.7%. With `CCCCCCCCCCCCSC1=C(C#N)C2(CCN(C)CC2)C(C#N)C(=O)N1` (configuration not stated) the displacement was -1.3%. `COc1cccc(N=Cc2c(O)n(-c3cc(OC)ccc3OC)c(=O)[nH]c2=O)c1` was tested, and the displacement was -2%.
